Screen size: about 3,200 compounds; about 75 (2%) showed an effect of 50% or more. The list shows a part of the results.
These compounds were tested on T1, S. aureus MSSA476. Conditions: relative growth, OD600, TSB; 25 µM; inhibitor.
T1 construct: MSSA476
Parameters: species or system S. aureus MSSA476 (TSB) or V. cholerae SAD30 (LB); 384-well bacterial growth screen at 25 uM, OD600 relative to DMSO control

| SMILES | % of control remaining [%] |
| --- | --- |
| Cc1ccc(C=C(C#N)C(=O)Nc2c(Cl)cccc2Cl)o1 [9-N21, 2-cyano-N-(2,6-dichlorophenyl)-3-(5-methylfuran-2-yl)prop-2-enamide] | 93.4831 |
| O=C(CCl)c1cscn1 [10-L08, 2-chloro-1-(1,3-thiazol-4-yl)ethan-1-one] | 27.8125 |
| C=CC(=O)Nc1ccc(C(=O)N2CCCC2C(=O)NC2CC2)cc1 (stereo not shown) [2-I21, N-cyclopropyl-1-[4-(prop-2-enamido)benzoyl]pyrrolidine-2-carboxamide] | 114.883 |
| C=CC(=O)N1CCC(C(=O)N2CCC(OC)(C(F)(F)F)CC2)CC1 [3-E08, 1-{4-[4-methoxy-4-(trifluoromethyl)piperidine-1-carbonyl]piperidin-1-yl}prop-2-en-1-one] | 101.001 |
| CC(C)NC(=O)C(C#N)=Cc1cccc(F)c1F [9-J20, 2-cyano-3-(2,3-difluorophenyl)-N-(propan-2-yl)prop-2-enamide] | 81.7978 |
| C=CC(=O)N(Cc1cn(CC)nc1C)C1CC1 [2-D13, N-cyclopropyl-N-[(1-ethyl-3-methyl-1H-pyrazol-4-yl)methyl]prop-2-enamide] | 115.579 |
| CC(C)NC(=O)C(C#N)=Cc1ccccc1OC(C)C [9-C15, 2-cyano-N-(propan-2-yl)-3-[2-(propan-2-yloxy)phenyl]prop-2-enamide] | 115.356 |
| CC1CN(CCCNC(=O)CCl)CC(C)O1.Cl (stereo not shown) [6-G11, 2-chloro-N-[3-(2,6-dimethylmorpholin-4-yl)propyl]acetamide hydrochloride] | 89.122 |
| C=CC(=O)NCc1nncn1-c1ccccc1 [1-G07, N-[(4-phenyl-4H-1,2,4-triazol-3-yl)methyl]prop-2-enamide] | 116.747 |
| C=CC(=O)Nc1ccc(C(=O)N2CCC[C@@H]2C(=O)OC)cc1 [2-E21, methyl (2R)-1-[4-(prop-2-enamido)benzoyl]pyrrolidine-2-carboxylate] | 89.4691 |
| O=C(CCl)N1N=C(c2cccc(F)c2)CC1c1cccs1 (stereo not shown) [4-E22, 2-chloro-1-[3-(3-fluorophenyl)-5-(thiophen-2-yl)-4,5-dihydro-1H-pyrazol-1-yl]ethan-1-one] | 121.582 |
| C=CC(=O)N1CCC(C(=O)N2CCCC2C2OCCO2)CC1 (stereo not shown) [2-L12, 1-{4-[2-(1,3-dioxolan-2-yl)pyrrolidine-1-carbonyl]piperidin-1-yl}prop-2-en-1-one] | 100.609 |
| N#CC(=Cc1cccs1)C(=O)NCc1ccco1 [9-L08, 2-cyano-N-[(furan-2-yl)methyl]-3-(thiophen-2-yl)prop-2-enamide] | 76.4045 |
| C=CC(=O)Nc1ccc(OC)cc1S(C)(=O)=O [1-C04, N-(2-methanesulfonyl-4-methoxyphenyl)prop-2-enamide] | 93.8901 |
| C=CC(=O)N1CCOCC1c1ncnn1Cc1ccccc1 (stereo not shown) [1-L12, 1-[3-(1-benzyl-1H-1,2,4-triazol-5-yl)morpholin-4-yl]prop-2-en-1-one] | 117.451 |
| O=C(CCl)N1c2ccccc2Sc2ccc(Cl)cc21 [4-N07, 2-chloro-1-(2-chloro-10H-phenothiazin-10-yl)ethan-1-one] | 3.049 |
| Cc1cccc(NC(=O)C(C#N)=Cc2cnc3ccc(C#N)cn23)c1 [9-O18, 2-cyano-3-{6-cyanoimidazo[1,2-a]pyridin-3-yl}-N-(3-methylphenyl)prop-2-enamide] | 102.472 |
| CCOC(=O)c1c2c(nn1C)CCN(C(=O)C(C)Cl)C2 (stereo not shown) [7-I07, ethyl 5-(2-chloropropanoyl)-2-methyl-2H,4H,5H,6H,7H-pyrazolo[4,3-c]pyridine-3-carboxylate] | 92.3077 |
| Cc1cc(C(C)(C)C)cc(C)c1NC(=O)CCl [4-L19, N-(4-tert-butyl-2,6-dimethylphenyl)-2-chloroacetamide] | 128.823 |
| COc1ccc2c(c1)CCCN(C(=O)C(C)Cl)C2 (stereo not shown) [5-D17, 2-chloro-1-(7-methoxy-2,3,4,5-tetrahydro-1H-2-benzazepin-2-yl)propan-1-one] | 114.754 |
| C=CC(=O)N1CSCC1C(=O)N1CCOCC1 (stereo not shown) [2-N21, 1-[4-(morpholine-4-carbonyl)-1,3-thiazolidin-3-yl]prop-2-en-1-one] | 119.06 |
| C=CC(=O)Nc1cc(Cl)cc(C)c1OC [1-E16, N-(5-chloro-2-methoxy-3-methylphenyl)prop-2-enamide] | 104.44 |
| NS(=O)(=O)c1cccc(N2C(=O)C=CC2=O)c1 [10-I05, 3-(2,5-dioxo-2,5-dihydro-1H-pyrrol-1-yl)benzene-1-sulfonamide] | 115 |
| O=C1C=CC(=O)N1c1cc(C(F)(F)F)ccc1Cl [10-G09, 1-[2-chloro-5-(trifluoromethyl)phenyl]-2,5-dihydro-1H-pyrrole-2,5-dione] | 133.75 |
| CC(Cl)C(=O)N1Cc2ccccc2OC(C)(C)C1 (stereo not shown) [6-H19, 2-chloro-1-(2,2-dimethyl-2,3,4,5-tetrahydro-1,4-benzoxazepin-4-yl)propan-1-one] | 123.951 |
| C#Cc1cccc(N(Cc2cc3n(n2)CCCO3)C(=O)CCl)c1 [5-O10, 2-chloro-N-(3-ethynylphenyl)-N-({5H,6H,7H-pyrazolo[3,2-b][1,3]oxazin-2-yl}methyl)acetamide] | 100.182 |
| C=CC(=O)Nc1ccc(-n2ccccc2=O)cc1F [3-J16, N-[2-fluoro-4-(2-oxo-1,2-dihydropyridin-1-yl)phenyl]prop-2-enamide] | 109.36 |
| C=CC(=O)NC(C)c1nc(C2CCCCC2)no1 (stereo not shown) [1-N17, N-[1-(3-cyclohexyl-1,2,4-oxadiazol-5-yl)ethyl]prop-2-enamide] | 112.176 |
